# Over roughly 2,900 compounds, “IRF Lucia reporter activity, fold change vs agonist alone” has its median near 0.9; the highest 2% begin near 2.8. Some of the results follow.
# Tests used:
# RAW-Dual [1] = assay: IRF Lucia reporter activity, fold change vs agonist alone; higher = enhanced IRF activity; conditions: library stock concentration (final ~1000-fold dilution): 10 mM, agonist: MPLA (TLR4) […]
# Summary of the method: (§1)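 Reporter activity is given as fold change relative to agonist-alone wells. To measure it, 50 nL of library stock was pin-tooled onto RAW-Dual macrophages (50,000 cells/well, DMEM, 384-well plates), a PRR agonist followed 1 h later, and cells stayed at 37 °C, 5% CO2. Twenty hours on, supernatant was assayed for IRF (QuantiLuc luminescence) and NF-κB (QuantiBlue, 620 nm absorbance), and wells under 70% of agonist-control IncuCyte confluency in both mask sets were marked cytotoxic.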
# RAW-Dual [2] = assay: IRF Lucia reporter activity, fold change vs agonist alone; cytotoxicity flag (confluency mask): not cytotoxic; higher = enhanced IRF activity
# Summary of the method: as §1
# RAW-Dual [3] = assay: IRF Lucia reporter activity, fold change vs agonist alone; cytotoxicity flag (confluency mask): cytotoxic (confluency <70% of control); higher = enhanced IRF activity
# Summary of the method: as §1
# [4] = cytotoxicity flag (confluency mask): not cytotoxic
# [5] = agonist: 3'3'-cGAMP (STING) 10 ug/mL
# [6] = cytotoxicity flag (confluency mask): cytotoxic (confluency <70% of control)
compound,measurement,setting,value
Cl.Nc1ccn(C2OC(CO)C(O)C2O)c(=O)n1 (stereo not given),IRF Lucia reporter activity,RAW-Dual [1]; [4],1
Cl.Nc1ccn(C2OC(CO)C(O)C2O)c(=O)n1 (stereo not given) (library stock concentration (final ~1000-fold dilution): 10 mM),IRF Lucia reporter activity,RAW-Dual [2]; [5],0.726
same,IRF Lucia reporter activity,RAW-Dual [2]; agonist: LPS (TLR4) 0.1 ug/mL,0.906
C/C(=C(\CCOP(=O)(O)O)SC(=O)c1ccccc1)N(C=O)Cc1cnc(C)nc1N (library stock concentration (final ~1000-fold dilution): 10 mM),IRF Lucia reporter activity,RAW-Dual [2]; [5],1.02
same,IRF Lucia reporter activity,RAW-Dual [2]; agonist: LPS (TLR4) 0.1 ug/mL,1.21
COc1ccc(C(=O)O)cc1O,IRF Lucia reporter activity,RAW-Dual [1]; [4],0.98
COc1ccc(C(=O)O)cc1O (library stock concentration (final ~1000-fold dilution): 10 mM),IRF Lucia reporter activity,RAW-Dual [2]; [5],1.01
same,IRF Lucia reporter activity,RAW-Dual [2]; agonist: LPS (TLR4) 0.1 ug/mL,1.22
CCN(CC)C(=S)SSC(=S)N(CC)CC,IRF Lucia reporter activity,RAW-Dual [1]; [4],0.279
CCN(CC)C(=S)SSC(=S)N(CC)CC (library stock concentration (final ~1000-fold dilution): 10 mM),IRF Lucia reporter activity,RAW-Dual [2]; [5],1.58
same,IRF Lucia reporter activity,RAW-Dual [2]; agonist: LPS (TLR4) 0.1 ug/mL,0.937
O=C1C(=Cc2cccnc2)C(=O)c2ccccc21 (library stock concentration (final ~1000-fold dilution): 10 mM),IRF Lucia reporter activity,RAW-Dual [2]; [5],0.916
same,IRF Lucia reporter activity,RAW-Dual [2]; agonist: LPS (TLR4) 0.1 ug/mL,1.17
O=C1C(=Cc2cccnc2)C(=O)c2ccccc21,IRF Lucia reporter activity,RAW-Dual [1]; [4],0.967
O=C(CCCCCN1C(=O)c2cccc3cccc(c23)C1=O)NO (library stock concentration (final ~1000-fold dilution): 10 mM),IRF Lucia reporter activity,RAW-Dual [3]; [5],0.0259
same,IRF Lucia reporter activity,RAW-Dual [3]; agonist: LPS (TLR4) 0.1 ug/mL,0.637
N#Cc1ccnc(N2C(=O)CCC2C(=O)N(c2cncc(F)c2)C(C(=O)NC2CC(F)(F)C2)c2ccccc2Cl)c1 (stereo not given) (library stock concentration (final ~1000-fold dilution): 10 mM),IRF Lucia reporter activity,RAW-Dual [2]; [5],1.42
same,IRF Lucia reporter activity,RAW-Dual [2]; agonist: LPS (TLR4) 0.1 ug/mL,1.11
NC(=O)c1cc(F)cc2c1C(=O)N(C1CCN(C3CCC(F)(F)CC3)CC1)C2 (library stock concentration (final ~1000-fold dilution): 10 mM),IRF Lucia reporter activity,RAW-Dual [2]; [5],0.94
same,IRF Lucia reporter activity,RAW-Dual [2]; agonist: LPS (TLR4) 0.1 ug/mL,0.923
O=C(/C=C/c1ccc(O)c(O)c1)O[C@@H]1CC(O)(C(=O)O)C[C@@H](OC(=O)/C=C/c2ccc(O)c(O)c2)C1O (stereo not given in full) (library stock concentration (final ~1000-fold dilution): 10 mM),IRF Lucia reporter activity,RAW-Dual [2]; [5],0.873
same,IRF Lucia reporter activity,RAW-Dual [2]; agonist: LPS (TLR4) 0.1 ug/mL,0.963
COc1ccc2c(c1)c(C1=C(c3c[nH]c4ccccc34)C(=O)NC1=O)cn2CCCN(C)C (library stock concentration (final ~1000-fold dilution): 10 mM),IRF Lucia reporter activity,RAW-Dual [3]; [5],0.0845
same,IRF Lucia reporter activity,RAW-Dual [3]; agonist: LPS (TLR4) 0.1 ug/mL,0.34
COc1ccc2c(c1)c(C1=C(c3c[nH]c4ccccc34)C(=O)NC1=O)cn2CCCN(C)C,IRF Lucia reporter activity,RAW-Dual [1]; [6],0.403
Nc1c2c(nc3ccccc13)CCCC2,IRF Lucia reporter activity,RAW-Dual [1]; [4],0.977
Nc1c2c(nc3ccccc13)CCCC2 (library stock concentration (final ~1000-fold dilution): 10 mM),IRF Lucia reporter activity,RAW-Dual [2]; [5],0.531
same,IRF Lucia reporter activity,RAW-Dual [2]; agonist: LPS (TLR4) 0.1 ug/mL,0.976
CC(C)=CCC[C@](C)(O[C@@H]1O[C@H](CO)[C@@H](O)[C@H](O)[C@H]1O)[C@H]1CC[C@]2(C)[C@@H]1[C@H](O)C[C@@H]1[C@@]3(C)CC[C@H](O)C(C)(C)[C@@H]3[C@@H](O[C@@H]3O[C@H](CO)[C@@H](O)[C@H](O)[C@H]3O)C[C@]12C (library stock concentration (final ~1000-fold dilution): 10 mM),IRF Lucia reporter activity,RAW-Dual [2]; [5],1
same,IRF Lucia reporter activity,RAW-Dual [2]; agonist: LPS (TLR4) 0.1 ug/mL,1.19
O=C(CCc1ccc(O)cc1)c1c(O)cccc1OC1OC(CO)C(O)C(O)C1O (stereo not given) (library stock concentration (final ~1000-fold dilution): 10 mM),IRF Lucia reporter activity,RAW-Dual [2]; [5],0.943
same,IRF Lucia reporter activity,RAW-Dual [2]; agonist: LPS (TLR4) 0.1 ug/mL,0.918
O=C(CCc1ccc(O)cc1)c1c(O)cccc1OC1OC(CO)C(O)C(O)C1O (stereo not given),IRF Lucia reporter activity,RAW-Dual [1]; [4],1.01
O=c1sn(-c2cccc3ccccc23)c(=O)n1Cc1ccccc1,IRF Lucia reporter activity,RAW-Dual [1]; [6],0.76
O=c1sn(-c2cccc3ccccc23)c(=O)n1Cc1ccccc1 (library stock concentration (final ~1000-fold dilution): 10 mM),IRF Lucia reporter activity,RAW-Dual [3]; [5],0.628
same,IRF Lucia reporter activity,RAW-Dual [3]; agonist: LPS (TLR4) 0.1 ug/mL,0.552
COc1ccc(S(=O)(=O)Nc2cccnc2Nc2ccc(O)cc2)cc1 (library stock concentration (final ~1000-fold dilution): 10 mM),IRF Lucia reporter activity,RAW-Dual [2]; [5],0.0892
same,IRF Lucia reporter activity,RAW-Dual [2]; agonist: LPS (TLR4) 0.1 ug/mL,1.68
COc1ccc(S(=O)(=O)Nc2cccnc2Nc2ccc(O)cc2)cc1,IRF Lucia reporter activity,RAW-Dual [1]; [4],1.36
O=C1NCCc2[nH]c(-c3ccncc3)cc21 (library stock concentration (final ~1000-fold dilution): 10 mM),IRF Lucia reporter activity,RAW-Dual [3]; [5],0.0453
same,IRF Lucia reporter activity,RAW-Dual [3]; agonist: LPS (TLR4) 0.1 ug/mL,0.0198
O=C1NCCc2[nH]c(-c3ccncc3)cc21,IRF Lucia reporter activity,RAW-Dual [1]; [6],0.0311
COc1ccccc1N1CCN(CCCNc2cc(=O)n(C)c(=O)n2C)CC1.Cl,IRF Lucia reporter activity,RAW-Dual [1]; [4],0.952
COc1ccccc1N1CCN(CCCNc2cc(=O)n(C)c(=O)n2C)CC1.Cl (library stock concentration (final ~1000-fold dilution): 10 mM),IRF Lucia reporter activity,RAW-Dual [2]; [5],1.09
same,IRF Lucia reporter activity,RAW-Dual [2]; agonist: LPS (TLR4) 0.1 ug/mL,0.867

# Reference: the supplement of paper PMC10037445
